Literature values, collected in patent US20240342197A1, “LIMONENE EFFECTS ON TETRAHYDROCANNABINOL (THC)-INDUCED ANXIETY” (The Johns Hopkins University, priority 2021, published 2024).

Experiments:
[1] = tested on: individuals previously naïve to its effects; settings: given intravenously or orally; cited from earlier work
rat brain = settings: cited from earlier work
mice = settings: suggested by studies of citrus oils in mice; cited from earlier work
[2] = inhaled from ambient air; cited from earlier work

SMILES: CCCCCc1cc(O)c2c(c1)OC(C)(C)[C@@H]1CCC(C)=C[C@@H]21 [THC, (−)-trans-Δ^9-tetrahydrocannabinol]
- therapeutic index [1]: narrow

SMILES: C=C(C)[C@@H]1CC=C(C(=O)O)CC1 [perillic acid]
- stress reduction (rat brain): stress reduction effects

SMILES: C=C(C)[C@H]1CC=C(C)CC1 [d-limonene]
- anxiolytic effect (mice): anxiolytic effects
- anxiolytic effect [2]: anxiolytic effects
- depression [2]: reduce depression
